In the supplement of paper PMC10724272:
MIC of invasive clinical C. tropicalis isolates, CLSI broth microdilution (fluconazole 0.12-256 mg/L, up to 1,024 for the azole-resistant cluster and its neighbour group; other ranges not stated); higher = less susceptible. Call: susceptible or wild type [S] / resistant or non-wild type [R] by CLSI breakpoints or cut-offs; intermediate and dose-dependent carry no call. '<=' and '>=' at the end values are inferred; the source marks only some of them. Isolates are numbered anew.

Legend:
Assay in all cases: CLSI broth microdilution.
amphotericin B = compound: C[C@@H]1[C@H](O)[C@@H](C)/C=C/C=C/C=C/C=C/C=C/C=C/C=C/[C@H](O[C@@H]2O[C@H](C)[C@@H](O)[C@H](N)[C@@H]2O)C[C@@H]2O[C@](O)(C[C@@H](O)C[C@@H](O)[C@H](O)CC[C@@H](O)C[C@@H](O)CC(=O)O[C@H]1C)C[C@H](O)[C@H]2C(=O)O [amphotericin B]
voriconazole = compound: C[C@@H](c1ncncc1F)[C@](O)(Cn1cncn1)c1ccc(F)cc1F [voriconazole]
anidulafungin = compound: CCCCCOc1ccc(-c2ccc(-c3ccc(C(=O)N[C@H]4C[C@@H](O)[C@@H](O)NC(=O)[C@@H]5[C@@H](O)[C@@H](C)CN5C(=O)[C@H]([C@@H](C)O)NC(=O)[C@H]([C@H](O)[C@@H](O)c5ccc(O)cc5)NC(=O)[C@@H]5C[C@@H](O)CN5C(=O)[C@H]([C@@H](C)O)NC4=O)cc3)cc2)cc1 [anidulafungin]
micafungin = compound: CCCCCOc1ccc(-c2cc(-c3ccc(C(=O)N[C@H]4C[C@@H](O)[C@@H](O)NC(=O)[C@@H]5[C@@H](O)[C@@H](C)CN5C(=O)[C@H]([C@H](O)CC(N)=O)NC(=O)[C@H]([C@H](O)[C@@H](O)c5ccc(O)c(OS(=O)(=O)O)c5)NC(=O)[C@@H]5C[C@@H](O)CN5C(=O)[C@H]([C@@H](C)O)NC4=O)cc3)no2)cc1 [micafungin]
flucytosine = compound: Nc1[nH]c(=O)ncc1F [flucytosine]
fluconazole = compound: OC(Cn1cncn1)(Cn1cncn1)c1ccc(F)cc1F [fluconazole]
itraconazole = compound: CCC(C)n1ncn(-c2ccc(N3CCN(c4ccc(OCC5COC(Cn6cncn6)(c6ccc(Cl)cc6Cl)O5)cc4)CC3)cc2)c1=O [itraconazole]
caspofungin = compound: CC[C@H](C)C[C@H](C)CCCCCCCCC(=O)N[C@H]1C[C@@H](O)[C@@H](NCCN)NC(=O)[C@@H]2[C@@H](O)CCN2C(=O)[C@H]([C@H](O)CCN)NC(=O)[C@H]([C@H](O)[C@@H](O)c2ccc(O)cc2)NC(=O)[C@@H]2C[C@@H](O)CN2C(=O)[C@H]([C@@H](C)O)NC1=O [caspofungin]
posaconazole = compound: CC[C@@H]([C@H](C)O)n1ncn(-c2ccc(N3CCN(c4ccc(OC[C@@H]5CO[C@@](Cn6cncn6)(c6ccc(F)cc6F)C5)cc4)CC3)cc2)c1=O [posaconazole]

| Test System | MIC (amphotericin B) | MIC (voriconazole) | MIC (anidulafungin) | MIC (micafungin) | MIC (flucytosine) | MIC (fluconazole) | MIC (itraconazole) | MIC (caspofungin) | MIC (posaconazole) |
| --- | --- | --- | --- | --- | --- | --- | --- | --- | --- |
| Candida tropicalis isolate 190 (ERG11 copies: 5, Erg11p: Y132F, S154F (heterozygous)) | 1 mg/L [S] | ≥ 8 mg/L [R] | 0.06 mg/L [S] | 0.03 mg/L [S] | ≤ 0.06 mg/L [S] | 256 mg/L [R] | 1 mg/L [R] | 0.03 mg/L [S] | 1 mg/L [R] |
| Candida tropicalis isolate 191 (ERG11 copies: 2, Erg11p: no key change) | 1 mg/L [S] | 0.06 mg/L [S] | ≤ 0.015 mg/L [S] | 0.03 mg/L [S] | ≤ 0.06 mg/L [S] | 1 mg/L [S] | 0.06 mg/L [S] | 0.03 mg/L [S] | 0.06 mg/L [S] |
| Candida tropicalis isolate 192 (ERG11 copies: 2, Erg11p: no key change) | 1 mg/L [S] | 0.12 mg/L [S] | 0.03 mg/L [S] | 0.015 mg/L [S] | ≤ 0.06 mg/L [S] | 2 mg/L [S] | 0.25 mg/L [S] | 0.03 mg/L [S] | 0.25 mg/L [S] |
| Candida tropicalis isolate 193 (ERG11 copies: 8, Erg11p: Y132F, S154F (heterozygous)) | 1 mg/L [S] | > 8 mg/L [R] | 0.12 mg/L [S] | 0.03 mg/L [S] | ≤ 0.06 mg/L [S] | 1020 mg/L [R] | 1 mg/L [R] | 0.06 mg/L [S] | 1 mg/L [R] |
| Candida tropicalis isolate 194 (ERG11 copies: 8, Erg11p: Y132F, S154F (heterozygous)) | 0.5 mg/L [S] | > 8 mg/L [R] | 0.12 mg/L [S] | 0.03 mg/L [S] | ≤ 0.06 mg/L [S] | 512 mg/L [R] | 1 mg/L [R] | 0.03 mg/L [S] | 1 mg/L [R] |
| Candida tropicalis isolate 195 (ERG11 copies: 2, Erg11p: no key change) | 0.5 mg/L [S] | 0.06 mg/L [S] | 0.06 mg/L [S] | 0.06 mg/L [S] | ≤ 0.06 mg/L [S] | 0.5 mg/L [S] | 0.12 mg/L [S] | 0.06 mg/L [S] | 0.12 mg/L [S] |
| Candida tropicalis isolate 196 (ERG11 copies: 2, Erg11p: no key change) | 1 mg/L [S] | 0.03 mg/L [S] | 0.03 mg/L [S] | 0.03 mg/L [S] | ≤ 0.06 mg/L [S] | 0.5 mg/L [S] | 0.12 mg/L [S] | 0.03 mg/L [S] | 0.06 mg/L [S] |
| Candida tropicalis isolate 197 (ERG11 copies: 2, Erg11p: no key change) | 1 mg/L [S] | 0.5 µg/mL | 0.03 mg/L [S] | 0.03 mg/L [S] | ≤ 0.06 mg/L [S] | 8 mg/L [R] | 0.5 mg/L [S] | 0.03 mg/L [S] | 1 mg/L [R] |
| Candida tropicalis isolate 198 (ERG11 copies: 7, Erg11p: Y132F, S154F (heterozygous)) | 1 mg/L [S] | > 8 mg/L [R] | 0.12 mg/L [S] | 0.03 mg/L [S] | ≤ 0.06 mg/L [S] | 512 mg/L [R] | 1 mg/L [R] | 0.03 mg/L [S] | 0.5 mg/L [R] |
| Candida tropicalis isolate 199 (ERG11 copies: 2, Erg11p: Y257H (homozygous)) | 1 mg/L [S] | 2 mg/L [R] | 0.06 mg/L [S] | 0.03 mg/L [S] | 0.12 mg/L [S] | 16 mg/L [R] | 1 mg/L [R] | 0.015 mg/L [S] | 1 mg/L [R] |
| Candida tropicalis isolate 200 (ERG11 copies: 2, Erg11p: no key change) | 0.5 mg/L [S] | 0.03 mg/L [S] | 0.12 mg/L [S] | 0.03 mg/L [S] | ≤ 0.06 mg/L [S] | 0.5 mg/L [S] | 0.12 mg/L [S] | 0.12 mg/L [S] | 0.06 mg/L [S] |
| Candida tropicalis isolate 201 (ERG11 copies: 2, Erg11p: Y132F, S154F (heterozygous)) | 0.5 mg/L [S] | 1 mg/L [R] | 0.12 mg/L [S] | 0.03 mg/L [S] | ≤ 0.06 mg/L [S] | 32 mg/L [R] | 0.5 mg/L [S] | 0.03 mg/L [S] | 0.5 mg/L [R] |
| Candida tropicalis isolate 202 (ERG11 copies: 2, Erg11p: no key change) | 1 mg/L [S] | 0.06 mg/L [S] | ≤ 0.015 mg/L [S] | 0.015 mg/L [S] | ≤ 0.06 mg/L [S] | 1 mg/L [S] | 0.06 mg/L [S] | 0.015 mg/L [S] | 0.12 mg/L [S] |
| Candida tropicalis isolate 203 (ERG11 copies: 3, Erg11p: Y132F, S154F (heterozygous)) | 0.5 mg/L [S] | 4 mg/L [R] | 0.12 mg/L [S] | 0.06 mg/L [S] | ≤ 0.06 mg/L [S] | 128 mg/L [R] | 1 mg/L [R] | 0.12 mg/L [S] | 0.5 mg/L [R] |
| Candida tropicalis isolate 204 (ERG11 copies: 2, Erg11p: Y132F, S154F (homozygous)) | 1 mg/L [S] | 4 mg/L [R] | 0.12 mg/L [S] | 0.06 mg/L [S] | ≤ 0.06 mg/L [S] | 64 mg/L [R] | 0.5 mg/L [S] | 0.03 mg/L [S] | 0.5 mg/L [R] |
| Candida tropicalis isolate 205 (ERG11 copies: 6, Erg11p: Y132F, S154F (heterozygous)) | 0.5 mg/L [S] | 4 mg/L [R] | 0.06 mg/L [S] | 0.03 mg/L [S] | ≤ 0.06 mg/L [S] | 256 mg/L [R] | 0.25 mg/L [S] | 0.06 mg/L [S] | 0.5 mg/L [R] |
| Candida tropicalis isolate 206 (ERG11 copies: 2, Erg11p: no key change) | 1 mg/L [S] | 0.12 mg/L [S] | 0.03 mg/L [S] | 0.03 mg/L [S] | ≤ 0.06 mg/L [S] | 2 mg/L [S] | 0.25 mg/L [S] | 0.03 mg/L [S] | 0.25 mg/L [S] |
